Out of some 410,000 compounds screened, about 1,200 (0.29%) were called active. This list was built around the results that the source calls inconclusive (neither active nor inactive); the mix of calls is not that of the screen. The call rests on the fitted dose curve; in most records, active means well fitted activation curve with a large enough effect; inconclusive means small, poorly fitted or top-dose-only effect; inactive means flat fitted curve, though single readings scatter. Potencies beside an inconclusive call are fits to weak or partial responses and may not hold up.
assay: qHTS of Nrf2 Activators; settings: AREc32 ARE-luciferase reporter (MCF7-derived line), luminescence, 24 h; activation: at 46.1 µM (top of the series); further: nearly all actives have a fitted effect of over 65% in size; on activation: % of control where 0% means no effect
Outline: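 Quantitative high-throughput format: AREc32 reporter cells, 1000 per well, received compound by pin transfer and were incubated 24 hr at 37 deg C, 5% CO2, before Steady-Glo luminescence detection.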
Potency means the concentration at half of the fitted maximal effect; tags describe the fitted curve by direction and shape.

Potency, inconclusive:
Cc1ccc(Cn2c(=S)[nH]c3ccc(N4CCOCC4)cc3c2=O)o1 31.6 µM [activator, single point]
CN1CCN(C(=S)c2ccc(-c3cccc([N+](=O)[O-])c3)o2)CC1 10 µM [activator, partial curve, poor fit]
O=C1OC(Nc2nc(-c3ccc(F)cc3)cs2)c2ccccc21 (stereo not given) 15.8 µM [activator, partial curve, poor fit]
O=[N+]([O-])c1cc2c(cc1Br)-c1ccccc1C2 2 µM [activator, full curve, poor fit]
O=C(NCc1ccco1)c1cc2c(s1)CSC2 25.1 µM [activator, single point]
COc1cc(NS(=O)(=O)c2ccc3ccccc3c2)c2ncccc2c1 5.62 µM [activator, single point]
COc1ccc(C(=O)CC2OC(=O)c3ccccc32)cc1OC (stereo not given) 17.8 µM [activator, single point]
COc1ccc(C(=O)C(CN2CCOCC2)c2ccccc2)cc1 (stereo not given) 4.47 µM [activator, single point]
COc1ccc([N+](=O)[O-])cc1NC(=O)CSc1nccc(C)n1 8.91 µM [activator, partial curve]
CCOc1ccc(NC(=O)c2nsc(Cl)c2Cl)cc1 3.98 µM [activator, partial curve, poor fit]
O=C(CCl)N(C/C=C/c1ccccc1)c1ccc2c(c1)OCCO2 12.6 µM [activator, single point]
c1ccc(N=Nc2ccc3cccccc2-3)cc1 3.98 µM [activator, partial curve, poor fit]
Nc1cc2[nH]c(=O)c3ccccc3c2cc1[N+](=O)[O-] 11.2 µM [activator, partial curve]
O=C(NCCc1ccc(O)c(O)c1)C1COc2ccccc2O1 (stereo not given) 28.2 µM [activator, single point]
Cc1cccc(C)c1-n1nnnc1C1c2ccccc2C(=O)N1CCC(C)C (stereo not given) 31.6 µM [activator, single point]
Cc1cscc1-c1cc2nc(NCCCN(C)C)n(C)c(=O)c2s1 12.6 µM [activator, partial curve]
Cc1noc(C)c1C(=O)Nc1nc(-c2cc(F)ccc2F)cs1 7.94 µM [activator, partial curve, poor fit]
CCCNC(=O)C1(C)CCCN(CCC(=O)c2ccccc2)C1 (stereo not given) 17.8 µM [activator, single point]
NC(=O)c1c(NC(=O)c2ccccc2F)sc2c1CCCC2 1.78 µM [activator, partial curve, poor fit]
COc1ccc(/C=C\C(=O)c2c(O)ccc3c(C)cc(=O)oc23)cc1OC 14.1 µM [activator, single point]
COc1ccc(C(=O)Nc2ccccc2[N+](=O)[O-])cc1S(=O)(=O)N1CCOCC1 28.2 µM [activator, single point]
COc1ccccc1Cn1c(=O)c2ccccc2n2c(Sc3ncnc4sccc34)nnc12 35.5 µM [activator, single point]
O=C1CC(c2ccco2)CC(O)=C1C=Nc1ccccc1-c1ccccc1 (stereo not given) 8.91 µM [activator, partial curve]
N/C(=N\OC(=O)c1ccc(Cl)cc1Cl)c1ccccc1 4.47 µM [activator, full curve]
O=C(Nc1nc(-c2ccc(Cl)s2)cs1)c1cccs1 10 µM [activator, partial curve]
CCN(CC)CCOC(=O)c1ccc(NC(=O)CSc2cc(=O)n(CC)c3ccccc23)cc1 20 µM [activator, single point]
Clc1ccc2c(NCc3ccco3)ncnc2c1 2.82 µM [activator, full curve, poor fit]
CCCCn1c(O)c(N=NC(=O)c2ccco2)c2ccccc21 14.1 µM [activator, partial curve, poor fit]
Oc1ccc(-c2nc3ccccc3s2)cc1 3.55 µM [activator, partial curve, poor fit]
CC(C)c1ccc(NC(=O)c2cccc(Br)c2)cc1 11.2 µM [activator, partial curve, poor fit]
O=c1c2ccccc2nc(-c2ccco2)n1-c1nc2ccccc2s1 17.8 µM [activator, single point]
O=C(COC(=O)[C@@H]1CCCN1C(=O)c1cccs1)Nc1ccc(Br)cc1 11.2 µM [activator, partial curve, poor fit]
COc1ccc(C(CNC(=O)c2ccc(Cl)c(NC(=O)c3cccs3)c2)N2CCCC2)cc1 (stereo not given) 15.8 µM [activator, single point]
Cc1cc(O)c(C(C)C)cc1N=Cc1ccccc1[N+](=O)[O-] 31.6 µM [activator, single point]
Cc1sc2nc(-c3ccccc3)oc(=O)c2c1C 11.2 µM [activator, partial curve]
O=C(NCCN1C(=O)S/C(=C\c2ccc(Cl)c([N+](=O)[O-])c2)C1=O)C1=COCCO1 15.8 µM [activator, single point]
O=[N+]([O-])c1ccc(Nc2ccccc2O)c2nonc12 22.4 µM [activator, single point]
N#Cc1c(C(F)(F)F)cc(-c2ccco2)nc1SCc1ccncc1 2 µM [activator, full curve, poor fit]
O=C1C(C=NCc2ccco2)=C(O)c2ccccc21 3.98 µM [activator, partial curve, poor fit]

Potency, inactive:
COc1ccc(C(CNC(=O)COc2cc(C)cc(C)c2)N2CCOCC2)cc1 (stereo not given)
CCC(=O)c1ccc(OCC(=O)O)cc1
Cc1cccc(-c2nc3c4ccccc4nc(NCc4ccc(F)cc4)n3n2)c1
CCc1ccc(NC(=O)Cn2c(-c3cncs3)nc3ccccc32)cc1
COc1ccccc1NC(=O)C1CCC(CNS(=O)(=O)c2ccc3c(c2)CC(C)N3C(C)=O)CC1 (stereo not given)
CCC(CC)C(=O)OCC(=O)C1(O)CCC2C3CCC4=CC(=O)CCC4(C)C3C(O)CC21C (stereo not given)
CCCCCCCCn1c(=O)c(C(=O)OC)c(N)c2ccccc21
CCOC(=O)c1cc(C)n(CCc2ccccc2)c1C
C=CCN1CCc2cc(O)c(O)cc2C(c2ccccc2)C1 (stereo not given)
CC(CN1CCN(CCOCCO)CC1)CN1c2ccccc2Sc2ccc(Cl)cc21 (stereo not given)
COc1ccc(CNC(=O)CCc2c(C)c3cc4c(C)coc4cc3oc2=O)cc1
COC(=O)c1cc2occc2n1Cc1nc(-c2cccc(Br)c2)oc1C
CSc1ccc(CCNc2ncnc3onc(-c4ccc(Cl)cc4)c23)cc1
COc1ccc(C2c3c(-c4cc(Cl)c(C)cc4O)n[nH]c3C(=O)N2Cc2cccnc2)cc1OC (stereo not given)
CCN(c1ccccc1)S(=O)(=O)c1nnc(NC(=O)C(C)Oc2ccccc2)s1 (stereo not given)
COc1ccc(CN2CC[C@H]3C=CC[C@@H](C(=O)Nc4ccc(Cl)c(C(F)(F)F)c4)[C@H]3C2=O)cc1OC
O=C(COc1cccc(C(F)(F)F)c1)Nc1ccc2[nH]ncc2c1
C=CCn1cc(C(=O)NCCCOCC)c(=O)c2cc(S(=O)(=O)N(CC)CC)ccc21
CCC(CO)Nc1ccn2nc(-c3cccs3)cc2n1 (stereo not given)
C[C@H]1CN([C@@H](C)CO)C(=O)c2cc(NC(=O)Cc3ccccc3)ccc2O[C@H]1CN(C)Cc1ccccc1
Fc1cccc(Cl)c1Cn1nnc(-c2ccc3c(c2)OCO3)n1
CCN1/C(=C/c2ccc3cc(C)ccc3[n+]2C)Sc2ccc3sccc3c21
O=C1c2ccccc2C(=O)N1OS(=O)(=O)c1ccc(F)cc1
CCC(=O)NC(C)c1cc(Cl)c2cccnc2c1O (stereo not given)

Potency, active:
Cc1ccc(/C=C2\Sc3ccccc3C2=O)s1 11.2 µM
Oc1c(C=Nc2ccccc2)sc2ccccc12 14.1 µM
Fc1cccc(Cl)c1Cc1noc(/C=C/c2ccccc2)n1 15.8 µM
O=C1COc2ccc(C(=O)COC(=O)/C=C/c3ccco3)cc2N1 2.24 µM
COc1ccc(N=C2NC(=O)/C(=C\C=C\c3ccco3)S2)cc1 12.6 µM
CCSC1(SCC)N=C(N)C2(C#N)C(c3ccccc3)NC3=C(CCC3)C12C#N (stereo not given) 14.1 µM
CCOC(=O)c1ccccc1N/C=C/C(=O)c1ccccc1 10 µM
CC1CC1c1ccc(/C=C(\C#N)C(=O)Nc2ccccc2Cl)o1 (stereo not given) 12.6 µM
C#CCSc1nc(-c2ccccc2)cc(C(F)(F)F)c1C#N 8.91 µM
COc1ccc(N(C(=O)c2cc3ccccc3oc2=O)C2C=CS(=O)(=O)C2)cc1 (stereo not given) 17.8 µM
O=C(/C=C/c1c(F)cccc1Cl)c1ccc(O)cc1 12.6 µM

activation, inactive:
O=C(CN(c1ccccc1)S(=O)(=O)c1ccccc1)Nc1ccccc1C(=O)NCc1ccco1 2.73% [at 9.22 µM]
